Source: a compilation of properties of binary mixtures (doi:10.1016/j.molliq.2020.112489)
The densities may have been worked out from excess volumes.

Experiment: xn = mol fraction of the nth substance listed
Conditions: 101 kPa

CC[n+]1ccn(C)c1.O=C([O-])C(F)(F)C(F)(F)C(F)(F)C(F)(F)F + O
mass density [kg/m3]
Conditions | 298.15 K | 308.15 K | 318.15 K
x1 = 0.0222 | – | 1113.9 | –
x1 = 0.0264 | 1140.8 | 1134.5 | 1127.6
x1 = 0.0311 | 1161.5 | – | 1147.8
x1 = 0.0364 | 1182.4 | 1175.6 | 1168.2
x1 = 0.0428 | 1204.2 | – | 1189.3
x1 = 0.0496 | 1224.4 | 1217.1 | 1209
x1 = 0.0581 | 1246.1 | 1238.4 | 1230.1
x1 = 0.067 | 1265.6 | 1257.6 | 1249
x1 = 0.0727 | 1276.6 | 1268.5 | 1259.7
x1 = 0.0857 | 1298.1 | – | 1280.6
x1 = 0.1009 | – | 1309.8 | 1300.4
x1 = 0.133 | 1350.6 | 1341.5 | 1331.7
x1 = 0.1458 | 1360.5 | – | –
x1 = 0.1625 | 1371.6 | 1362.1 | –
x1 = 0.1788 | 1380.8 | 1371.2 | 1361
x1 = 0.201 | 1391.5 | – | 1371.5
x1 = 0.2367 | – | 1395.3 | 1384.8
x1 = 0.262 | 1413.1 | – | 1392.5
x1 = 0.3007 | 1422.9 | – | 1402
x1 = 0.4265 | – | 1433.3 | 1422.3
x1 = 0.7012 | 1465.1 | 1454.3 | 1442.9
x1 = 1 | 1486.8 | 1476.2 | 1465.9

Cn1cc[n+](CCO)c1.O=S(=O)([O-])C(F)(F)C(F)(F)C(F)(F)C(F)(F)F + O
mass density [kg/m3]
Conditions | 298.15 K | 308.15 K | 318.15 K
x1 = 0.0178 | 1123.8 | 1119.5 | 1114.3
x1 = 0.0195 | 1133.1 | 1128.7 | 1123.4
x1 = 0.0212 | 1142.1 | 1137.2 | 1131.4
x1 = 0.0232 | – | 1148.4 | –
x1 = 0.0253 | 1163.7 | 1158.8 | 1153.1
x1 = 0.0274 | – | 1167.5 | 1161.7
x1 = 0.0297 | 1184.3 | 1179.1 | 1173.1
x1 = 0.0321 | 1194.3 | 1189.1 | –
x1 = 0.0348 | 1205.9 | 1200.4 | 1194.3
x1 = 0.0376 | 1216.1 | 1210.5 | 1204.3
x1 = 0.0405 | 1229.8 | 1224 | 1217.5
x1 = 0.0438 | 1240.3 | – | –
x1 = 0.0474 | 1251.1 | 1245.1 | 1238.3
x1 = 0.0511 | – | 1256.8 | 1249.8
x1 = 0.0551 | 1275.1 | 1268.5 | 1261.4
x1 = 0.0596 | – | 1280.7 | –
x1 = 0.0644 | 1298.4 | – | 1284.3
x1 = 0.07 | 1312.9 | – | 1298.5
x1 = 0.0756 | 1325.1 | – | 1308.6
x1 = 0.0824 | 1339.8 | 1332.5 | 1324.7
x1 = 0.0899 | 1352.8 | – | 1337.4
x1 = 0.0983 | – | 1360 | –
x1 = 0.1075 | 1381.4 | 1373.6 | 1365.3
x1 = 0.1178 | 1398.2 | 1390.2 | 1381.8
x1 = 0.1302 | 1412.1 | – | –
x1 = 0.1441 | 1429.2 | – | 1411.8
x1 = 0.1621 | 1444.4 | 1435.9 | 1426.9
x1 = 0.1816 | – | 1450.2 | 1441.2
x1 = 0.2068 | 1473.1 | – | 1454.8
x1 = 0.2329 | 1486 | 1477.1 | –
x1 = 0.2751 | 1502.9 | 1493.8 | 1484.1
x1 = 0.3277 | 1517 | 1507.8 | 1497.5
x1 = 0.3954 | 1532.4 | – | 1513.5
x1 = 0.5075 | 1550 | 1540.6 | 1530.9
x1 = 0.6777 | – | 1560.4 | 1550.8
x1 = 1 | 1620 | 1609.2 | 1598.7
